Assay results: PubChem BioAssay AID1645882 (National Center for Advancing Translational Sciences (NCATS), 2021)
Screen size: about 16,000 compounds; about 120 (0.75%) were called active. About 4% were inconclusive and are not listed. Calls come from the whole dose curve; as a rule, active = well fitted inhibition curve with a large enough effect; inconclusive = small, poorly fitted or top-dose-only effect; inactive = no such curve, though single readings can be large or run the other way. The list shows a part of the results.

target: Rap guanine nucleotide exchange factor 3 (Homo sapiens) (UniProt O95398); test: Validation qHTS for antagonist of cAMP-regulated guanine nucleotide exchange factor 3 (EPAC1); details: EPAC1 Rap1B-BODIPY-GDP exchange, fluorescence; series mostly up to 150 µM; activity change, negative = inhibition: at the top concentration;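 note: plate controls were DMSO for no effect and ATA control for full effect; nearly all actives have a fitted effect of over 75% in size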
Chain of UniProt O95398 (O95398 whole entry, looked up): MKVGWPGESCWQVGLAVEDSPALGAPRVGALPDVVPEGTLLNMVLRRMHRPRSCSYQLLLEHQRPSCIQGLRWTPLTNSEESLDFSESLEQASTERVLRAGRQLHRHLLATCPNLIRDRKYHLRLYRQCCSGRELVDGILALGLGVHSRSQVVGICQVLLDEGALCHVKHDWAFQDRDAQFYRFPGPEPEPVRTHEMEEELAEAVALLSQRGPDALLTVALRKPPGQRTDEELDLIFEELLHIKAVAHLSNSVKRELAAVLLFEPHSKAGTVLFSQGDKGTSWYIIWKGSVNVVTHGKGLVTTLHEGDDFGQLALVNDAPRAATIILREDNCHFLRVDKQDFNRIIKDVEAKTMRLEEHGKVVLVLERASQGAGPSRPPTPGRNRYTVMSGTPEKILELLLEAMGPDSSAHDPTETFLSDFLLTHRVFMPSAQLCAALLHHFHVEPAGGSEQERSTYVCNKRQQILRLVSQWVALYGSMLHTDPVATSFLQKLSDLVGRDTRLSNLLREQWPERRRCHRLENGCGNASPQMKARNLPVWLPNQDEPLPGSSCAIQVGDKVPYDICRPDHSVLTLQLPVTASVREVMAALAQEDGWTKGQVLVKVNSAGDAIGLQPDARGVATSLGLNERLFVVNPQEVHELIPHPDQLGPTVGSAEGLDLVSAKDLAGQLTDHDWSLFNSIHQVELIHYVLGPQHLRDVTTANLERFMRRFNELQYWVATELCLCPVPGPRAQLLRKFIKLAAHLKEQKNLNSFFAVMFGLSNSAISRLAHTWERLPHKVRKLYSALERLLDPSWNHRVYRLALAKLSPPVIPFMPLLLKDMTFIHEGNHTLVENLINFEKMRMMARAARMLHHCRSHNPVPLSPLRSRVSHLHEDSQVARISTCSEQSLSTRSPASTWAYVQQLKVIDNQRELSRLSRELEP
How it was run: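 EPAC1 (100 nM) mixed with 250 nM RAP1B-BODIPY-GDP and 50 uM GDP; compounds in concentration series, 5 min at room temperature. Fluorescence (ex 480/em 540 nm) read every 5 min for 30 min; normalized to ATA control and DMSO.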

Compound	activity change, negative = inhibition
OCC(O)C(O)[C@H](O[C@H]1OC(CO)C(O)C(O)C1O)[C@H](O)CO (some centres undefined)	inactive: 16.9%
CC[N+](CC)(CC)c1ccc(/C=C/c2ccnc3ccccc23)cc1	inactive: -28.4%
COCCn1c(=O)cnc2cnc(Oc3cccc(Cl)c3)nc21	inactive: 9.04%
Cc1c(C(=O)N2CC[C@@H]3CCCC[C@H]3C2)sc2ncnc(NCCc3ccccn3)c12	inactive: 2.45%
CCCCN1C[C@H](C)[C@@H](CC(=O)NCc2ccccc2)C1=O	inactive: -4.59%
Cc1ccccc1-c1ccc2ncnc(N3CCN(C)CC3)c2c1	inactive: 7.14%
COC(=O)c1c(OCc2ccccc2)cc(=O)n2c1CCN(Cc1cccc(C)n1)CC2	inactive: 4.19%
NCCNC(=O)c1ccc(Cl)cc1	inactive: 1.72%
CC1=C(C2=C(C)C(C(C)C)C3=C(C(=O)C(O)C3O)C2O)C(O)C2=C(C(O)C(O)C2=O)C1C(C)C (centres undefined)	inactive: 20.4%
Cc1c(C(=O)N2CCCCC2)sc2ncnc(NCCN(C)C)c12	inactive: 7.14%
CS(=O)(=O)N1CCC2(CCN(C(c3ccccc3)c3ccccc3)CC2)CC1	inactive: -3.35%
CCCSc1ccc2nc(NC(=O)OC)[nH]c2c1	inactive
Clc1cccc2c1CN(C1=NCCN1)C2	inactive: 6.33%
COc1ccc(CCC(=O)O)cc1	inactive: 10.7%
COc1ccc(/C=C/C(=O)c2ccc(O)cc2O)cc1OC	inactive: -2.86%
CCN(CC)CCCCCCCCOC(=O)c1cc(OC)c(OC)c(OC)c1	inactive
Cc1ccc(-c2ccc(C(=O)N3CCc4nnc(CNC(=O)c5ccccc5)n4CC3)cc2)cc1	inactive: 3.25%
O=C(Nc1nccs1)[C@@H]1CC=C[C@@H]2CCN(C3CCCCC3)C(=O)[C@@H]21	inactive: 10.7%
COCc1c(C(=O)NC2CCCCC2)cnn1-c1nccc(-c2cc(C)sc2C)n1	inactive: -11.3%
FC(F)OC(Cl)C(F)(F)F (centres undefined)	inactive: 460%
COCC(=O)N1CCC2(CC1)CCN(C(=O)NC(C)C)CC2	inactive: -2.25%
Cc1ncc2c(c1CNC(=O)c1cncs1)CCN(C(=O)c1ccc(C(F)(F)F)cc1)C2	inactive: 5.03%
CC(C)CN1CC[C@@]2(CCCN(S(=O)(=O)c3ccccc3)C2)C1	inactive: 15.9%
Cn1cccc1C(=O)N1CCC2(CCN(Cc3ccccc3)CC2)CC1	inactive: 24.4%
c1ccc(Cc2nnc3n2CCN(Cc2cnc(-c4ccccc4)s2)CC3)cc1	inactive: 20.3%

Compound	activity change, negative = inhibition
CCCCCCCCCCCCC/C=C/[C@@H](O)[C@@H](N)CO	inactive
COc1ccccc1OCC(O)COC(N)=O (centres undefined)	inactive
COCC(=O)N1CCC2(CC1)CCN(C(=O)Nc1ccc(OC)cc1)CC2	inactive: 12.8%
O=S(=O)(NCc1ccc(F)cc1)c1ccc(Br)cc1Br	inactive: -20.5%
Nc1ccn([C@@H]2CS[C@H](CO)O2)c(=O)n1	inactive: 19.9%
COc1ccc(C2Sc3ccccc3N(CCN(C)C)C(=O)[C@@H]2OC(C)=O)cc1 (some centres undefined)	inactive
CN(C)C(=O)Oc1ccc[n+](C)c1	inactive
Nc1c2c(nc3ccccc13)CCCC2O (centres undefined)	inactive
COc1ccc(Oc2ncc3nc(-c4cccc(C#N)c4)c(=O)n(Cc4cccc(OC)c4)c3n2)cc1	inactive: 3.4%
O=C(Cc1ccc2c(c1)OCO2)N1CCOc2ccc(CN3CCOCC3)cc2C1	inactive: 10.7%
Cc1cc(N)c2ccccc2[n+]1CCCCCCCCCC[n+]1c(C)cc(N)c2ccccc21	inactive
CC(=O)OCC1OC(Oc2cc(OC(C)=O)c3c(=O)cc(-c4ccc(OC(C)=O)cc4)oc3c2)[C@@H](OC(C)=O)C(OC(C)=O)C1OC(C)=O (some centres undefined)	inactive: 3.75%
CNc1ccccc1C(=O)N1CCc2c([nH]c3ccccc23)C1=O	inactive: 17.4%
CC1=C(C(=O)O)N2C(=O)[C@@H](NC(=O)C(N)c3ccccc3)[C@H]2SC1 (some centres undefined)	inactive: 1.61% [at 75.8 µM]
N#CCCn1c(=O)c(-c2ccc(F)cc2)nc2cnc(Oc3ccccc3)nc21	inactive: 20.1%
COc1ccc2c(=O)c(CC(=O)O)coc2c1	inactive: -8.1%
CN1CCN(c2ncc3nc(CCc4ccccc4)c(=O)n(C4CC4)c3n2)CC1	inactive: -2%
COc1ccc2c(=O)c3ccccc3oc2c1	inactive: 0.074%
C[C@@H]1OC(OC2CC[C@@]3(C)C(CC[C@@]4(C)C3CC=C3C5CC(C)(C)CC[C@]5(C(=O)OC5OCC(O)[C@@H](O)[C@@H]5OC5O[C@@H](C)[C@H](O[C@H]6OC(CO)C(O)C(O)C6O)C(O)C5O)C(O)C[C@@]34C)C2(C)C)C(O)C(O)[C@H]1OC1OCC(O)C(O)[C@H]1O (some centres undefined)	inactive: 41.5%
CN1CCN(c2ncc3nc(-c4ccc(F)cc4)c(=O)n(C4CC4)c3n2)CC1	inactive: 29.3%
Nc1nc2ncc(CNc3ccc(C(=O)NC(CCC(=O)O)C(=O)O)cc3)nc2c(=O)[nH]1 (centres undefined)	inactive: 8.96%
O=C(NCC1CCC2(CCN(Cc3cccc(-c4ccco4)c3)CC2)O1)c1ccccc1 (centres undefined)	inactive: 7.19%
CC(C)=CCc1c(O)cc(O)c2c1O[C@H](c1ccccc1)CC2=O	inactive: -10.6%
COCCN(C)C(=O)c1cnn(-c2ncc3c(n2)-c2ccccc2CCC3)c1C1CC1	inactive: 18.1%
